The results in this text go back to ChEMBL document CHEMBL4888484, “Replenishing the malaria drug discovery pipeline: Screening and hit evaluation of the MMV Hit Generation Library 1 (HGL1) against asexual blood stage Plasmodium falciparum ,using a nano luciferase reporter read-out” (2022).

SMILES strings stand for the structures. Among all 150,000 compounds or so, about 540 (0.36%) showed an effect of 50% or more. The list shows a part of the results.

In this test the test system is Plasmodium falciparum. Description: Primary screen in NF54 nanoGlo assay, in single point, at 2uM, 72h; a lower Z score goes with more inhibition. Conditions: timepoint 72 hour. In kind it is functional, Erythrocyte.
On to `CC(C)Cc1noc(Cn2cnc3cc(F)c(F)cc32)n1`, for which the % Inhibition (commonly the change of the read-out against control, counted positive when it falls) is given as -4% and the Z score worked out at 0.53.

On to `CN(C)C[C@H](NS(=O)(=O)C1CC1)c1ccc(Cl)cc1`, for which the “% Inhibition” value is given as -7% and the Z score turned out to be 0.74.

Regarding `CCc1ccc(S(=O)(=O)N[C@H]2CS(=O)(=O)C[C@@H]2O)cc1`, the “% Inhibition” value came out at 2% and the Z score was -0.27.

For the compound `C#CC1(O)CCN(C(=O)Nc2ccc(N3CCCCC3)cc2)CC1`, the “% Inhibition” value was -7% and the Z score amounted to 0.92.

Turning to `Cc1ccc(N(CC(=O)Nc2ccc(OCc3ccccc3)cc2)S(=O)(=O)c2ccccc2)cc1`, the “% Inhibition” value was 1% and the Z score is -0.19.

`Cc1cc(=O)n(CC(=O)Nc2cccc(Cl)c2)c(N2CCc3ccccc3C2)n1`: the “% Inhibition” value is reported as -14% and the Z score was found to be 1.28.

In the case of `O=C(NCC1CCOCC1)c1ccc2n[nH]c(=O)n2c1`, the “% Inhibition” value is recorded as 32% and the Z score is on record as -0.58.

As for `COc1ccc(Cc2ncc3c(n2)CN(C(=O)[C@@H](C)Cn2cncn2)C3)cc1`, the “% Inhibition” value was -2% and the Z score was 0.46.

Consider `COc1ccc(CCC(=O)N2C[C@@H]3CN(C(C)C)C[C@]3(C(=O)N3CCCC3)C2)cc1`, for which the “% Inhibition” value is -8% and the Z score was 1.03.

Consider `COC(=O)CCN(CC(=O)NCc1cccnc1)CC(C)C`, for which the “% Inhibition” value was -16% and the Z score amounted to 2.09.

Turning to `CN1N=C(C(=O)N2CCC[C@H](c3[nH]ncc3Cc3ccccc3)C2)CCC1=O`, the “% Inhibition” value was 3% and the Z score is -0.53.

Turning to `Cc1ccc(-c2cn3ccn(-c4ccc5c(c4)CCC5)c(=O)c3n2)cc1C`, the “% Inhibition” value is -3% and the Z score is on record as 0.45.

As for `CC(CC1CCCO1)NC(C)c1ccco1` (centres undefined), the “% Inhibition” value worked out at 13% and the Z score is listed as -1.61.

For the compound `O=c1c(C(F)(F)F)cccn1Cc1ncccn1`, the “% Inhibition” value is recorded as -9% and the Z score amounted to 1.69.

For the compound `O=C1C[C@H](c2ccccc2)c2cnn(Cc3cccs3)c2N1`, the “% Inhibition” value was -2% and the Z score is 0.32.

As to `COc1cccc(CN2CCC[C@@](O)(CN3CCCCC3)C2=O)c1OC`, the “% Inhibition” value is 2% and the Z score is listed as -0.36.

On to `Cc1ncc([C@H](C)NCC(C)(C)CC2CCOCC2)s1`, for which the “% Inhibition” value is given as -17% and the Z score came to 2.45.

With `CCc1ccc(C2CN3C(=O)N(Cc4ccccc4)C(=O)[C@]3(C)c3[nH]c4ccccc4c32)cc1` (some centres undefined), the “% Inhibition” value was -3% and the Z score was 0.42.

As to `NC(=O)CN1C(=O)CCN(c2ccccc2)C1=O`, the “% Inhibition” value is listed as -47% and the Z score is recorded as 5.52.

As for `Cc1ccc(C)c(CNc2cc(C(=O)N3CCc4ccccc4C3)cc(S(=O)(=O)N(C)C)c2)c1`, the “% Inhibition” value is on record as -18% and the Z score was found to be 2.13.

As for `COc1ccccc1N1CCN(C2CCN(Cc3ccncc3)CC2)CC1`, the “% Inhibition” value is 32% and the Z score is -3.67.

Take `Cc1ccc(NC(=O)Nc2cc(C)cc3c(-c4ccccc4)c(C(=O)NC[C@H]4CCCO4)[nH]c23)cc1`: the “% Inhibition” value is listed as 31% and the Z score is listed as -3.49.

As for `CC(C)S(=O)(=O)N1CCC[C@H](CCc2nnc(C3CCOCC3)o2)C1`, the “% Inhibition” value was -16% and the Z score is 2.16.

With `C[C@H](NC(=O)OC(C)(C)C)c1nnco1`, the “% Inhibition” value is 1% and the Z score is -0.11.

As to `CC(C)(C)OC(=O)Nc1ccc(F)c(NC(=O)[C@@H]2CCC(=O)N2)c1`, the “% Inhibition” value is on record as -5% and the Z score is recorded as 0.73.

With `COCC1(C(=O)Nc2ccc3nscc3c2)CCOCC1`, the “% Inhibition” value stood at 3% and the Z score is on record as -0.33.

For `CCCc1nnnn1C[C@H]1CCCN(S(C)(=O)=O)C1`, the “% Inhibition” value is reported as -12% and the Z score turned out to be 1.59.

As to `CNC(=O)Cc1nc(C2CC3CCC2C3)cs1` (centres undefined), the “% Inhibition” value is listed as -4% and the Z score is 0.61.

With `O=C(NS(=O)(=O)Cc1ccc2c(c1)COC2)C1CC12CCOC2` (centres undefined), the “% Inhibition” value was 5% and the Z score is listed as -0.76.

Regarding `CCN(C(C)=O)c1nc2ccccc2n(CC(=O)Nc2cc(C(F)(F)F)ccc2Cl)c1=O`, the “% Inhibition” value was -9% and the Z score was 1.4.

On to `O=C(NC(=O)c1ccc(F)cc1F)Nc1nc(-c2ccccc2)cc(C(F)(F)F)n1`, for which the “% Inhibition” value is recorded as -2% and the Z score stood at 0.37.

On to `CC(=O)Nc1ccc(N2C(=O)c3cc(-c4ccco4)nn3C[C@@]2(C)C(=O)NCc2cccc(C)c2)cc1`, for which the “% Inhibition” value is -16% and the Z score was found to be 2.55.

`CCN(CCCNC(=O)NC1CCCC1)S(C)(=O)=O`: the “% Inhibition” value is -6% and the Z score is given as 0.67.

As for `O=C(Nc1cnn(CCN2CCCCC2)c1)[C@H](O)c1ccccc1`, the “% Inhibition” value is -9% and the Z score came out at 0.88.

Take `Cc1ccc(CCNC(=O)NCC(=O)Nc2ccc(F)cc2)cn1`: the “% Inhibition” value is -7% and the Z score was determined as 1.15.

As for `C[C@@H](Cn1ccnc1)NC(=O)c1ccccc1-c1ccccc1`, the “% Inhibition” value was -11% and the Z score came out at 1.58.

For `Cc1nc(-c2c(C)noc2C)sc1C(=O)N1CC(C)[S+]([O-])C(C)C1` (centres undefined), the “% Inhibition” value is -1% and the Z score is listed as 0.1.

As to `CCCCN(C)C(=O)c1nccnc1NC(=O)c1ccccc1`, the “% Inhibition” value is -9% and the Z score was determined as 1.29.

In the case of `O=C(c1csc(S(=O)(=O)N2CCCc3ccccc32)c1)N1CCOCC1`, the “% Inhibition” value was 2% and the Z score was -0.19.

On to `Cc1noc(C)c1CC(C)NC(=O)NC(C)(CO)C1CCCCC1` (centres undefined), for which the “% Inhibition” value is on record as -9% and the Z score is given as 1.26.

As for `Cc1cnc(NC(=O)c2cc(O)nc(CC(C)C)c2)[nH]1`, the “% Inhibition” value is on record as -1% and the Z score is 0.11.

As for `Cc1cnn(CC(=O)NCCN2CC=CCC2)c1`, the “% Inhibition” value is reported as -15% and the Z score was determined as 2.3.
